Measurements reported in PubChem BioAssay AID504832 (National Center for Advancing Translational Sciences (NCATS), 2011).
Among all 310,000 compounds or so, about 18,000 (5.8%) were called active. Inconclusive results, whose numbers are uncertain, are shown with a selection of clear calls. Calls come from the whole dose curve; as a rule, active = well fitted inhibition curve with a large enough effect; inconclusive = small, poorly fitted or top-dose-only effect, or another doubt; inactive = no such curve, though single readings can be large or run the other way. No potency is given beside an inconclusive call; the fits are too rough.

Test: Primary qHTS for delayed death inhibitors of the malarial parasite plastid, 48 hour incubation
Conditions: P. falciparum luciferase growth in erythrocytes; series mostly up to 28.7 µM; activity change, negative = inhibition: at the top concentration
Method in brief: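 Compounds are pin-transferred into medium, infected erythrocytes (2% hematocrit, 0.1% parasitemia final) are added, and plates sit one parasite generation at 37 C in 5% CO2. Detection reagent is then added and luminescence measured.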
% is set by controls: 0 for no effect and ±100 for the full control effect; potency is the fitted concentration of half-maximal effect; tags give direction and shape of the fitted curve.

SMILES	Potency	activity change, negative = inhibition
COc1ccc(C(=O)O/N=C(\N)Cc2ccc(Cl)cc2Cl)cc1OC	active: 13.1 µM	
Cc1ccc2c(c1)nnn2C1CCN(CC(=O)Nc2ccccc2N2CCOCC2)CC1	active: 2.08 µM	
NC(=O)CSc1nnc(-c2cccc(S(=O)(=O)N3CCCCC3)c2)o1	inconclusive [inhibitor, partial curve, poor fit]	
CCOC(=O)/C=C/C(=O)Nc1ccc(-c2nnc3n2CCCCC3)cc1	inconclusive [inhibitor, full curve]	
Cc1ccc(OCC(=O)Nc2nnn(C)n2)c(C)c1		inactive: 35.6%
Cc1ccc(C(OCCN(C)C)c2cccc(C(F)(F)F)c2)cc1 (stereo unspecified)	inconclusive [inhibitor, single point]	
O=C(CCN1CCCCC1)NCC(=O)Nc1ccc(Br)cc1C(=O)c1ccccc1	inconclusive [inhibitor, full curve, poor fit]	
COc1ccc(N(C(C)C(=O)NC2CCCCCC2)S(C)(=O)=O)cc1 (stereo unspecified)	inconclusive [inhibitor, partial curve]	
CCOc1ccc(NC(=O)COC(=O)c2cccnc2)cc1	inconclusive [inhibitor, single point]	
COc1ccc(CCNC(=S)NCc2cccs2)cc1OC	inconclusive [inhibitor, partial curve]	
COc1cc(C(=S)N2CCN(c3ccccc3Cl)CC2)cc(O)c1O	inconclusive [inhibitor, single point]	
Nc1nonc1C(=O)N/N=C/c1cc(Br)ccc1O	active: 4.15 µM	
N/C(=N\OC(=O)COc1ccc(Cl)cc1Br)c1cccnc1		inactive: 322%
COc1ccc(NC(=O)[C@H](C)NC(=O)[C@@H]2Cc3ccccc3CN2C(=O)OC(C)(C)C)cc1	inconclusive [inhibitor, single point]	
CCOCCc1nn2c(=O)cc(CSCC(=O)Nc3ccc(OC)cc3)nc2s1		inactive: -3.19%
Cc1cc(Nc2ncc(Cl)cc2Cl)n(-c2ccccc2C)n1	inconclusive [inhibitor, single point]	
O=C(Nc1ccccc1CC[N+](=O)[O-])N1CCN(c2ccccc2)CC1	active: 10.4 µM	
O=C(c1cnn2c(C(F)(F)F)cc(-c3ccccc3)nc12)N1CCCc2ccccc21		inactive: -10.4%
O/N=C\c1cnc(N2CCN(c3ccccc3)CC2)s1		inactive: 66.2%
Cc1ccc(OCC(=O)N2CCN(C)CC2)c(Br)c1		inactive: 44.9%
Cc1cc(C(=O)N/N=C2\CCCC(=O)C2)c(C)n1-c1ccccc1		inactive: 24.8%
Nc1nnc(SCc2cn3cc(Cl)ccc3n2)s1		inactive: 125%
CCOC(=O)c1sc(NC(=O)CSc2nnnn2-c2ccccc2)nc1C		inactive: 3.77%
Cc1ccc2nccc(C(=O)N3CCCC(Nc4ccc(C)c(C)c4)C3)c2c1 (stereo unspecified)	inconclusive [inhibitor, partial curve]	

SMILES	Potency	activity change, negative = inhibition
O=C(CC1SC(=Nc2ccccc2)N(CCc2c[nH]c3ccccc23)C1=O)Nc1ccccc1F (stereo unspecified)	inconclusive [inhibitor, single point]	
Cc1cc(OCC(=O)NCC2CCC(C(=O)O)CC2)c2c(C)c(Cc3ccccc3)c(=O)oc2c1 (stereo unspecified)	active: 11.7 µM	
CCn1ccnc1CN(C)C(=O)c1cc(COc2ccc(OC)c3ccccc23)on1	inconclusive [inhibitor, partial curve, poor fit]	
c1ccn2cc(-c3ccc4c(c3)OCCO4)nc2c1		inactive: 425%
O=C(CCc1nnc(C2(c3ccc(Cl)cc3)CCC2)o1)NC1CC1	active: 10.4 µM	
COc1ccc(S(=O)(=O)Nc2ccc3cn[nH]c3c2)cc1[N+](=O)[O-]	inconclusive [inhibitor, single point]	
O=C(Nc1ccc(Cl)c(S(=O)(=O)N2CCOCC2)c1)c1n[nH]c(=O)c2ccccc12	inconclusive [inhibitor, single point]	
O=C(CSc1ccc(-c2ccco2)nn1)c1cccc([N+](=O)[O-])c1	inconclusive [inhibitor, single point]	
C=CCNC(=S)N/N=C/c1ccc(C)cc1C	active: 10.4 µM	
N#Cc1c2c(c(NCCCN3CCOCC3)n3c1nc1ccccc13)CCC2	inconclusive [inhibitor, full curve]	
Cc1ccc(-c2noc(CSc3nnc(-c4ccncc4)n3-c3ccc(F)cc3)n2)cc1	inconclusive [inhibitor, single point]	
CCN(c1ccccc1)c1cc2ccccc2c(=O)[nH]1	inconclusive [inhibitor, partial curve, poor fit]	
Cc1cccc(N(Cc2ccccc2)C(=O)c2ccccc2F)c1	inconclusive [inhibitor, single point]	
O=C1CCN(c2ccc([N+](=O)[O-])cc2F)CC1		inactive: 276%
COc1ccccc1CNC(=O)CNC(=O)[C@@H]1Cc2ccccc2CN1	inconclusive [inhibitor, partial curve]	
COc1ccc(C/C(C)=N/NC(=O)c2cccnc2)cc1		inactive: 3.03%
Fc1cccc(NC(=S)NCc2ccc(Cl)cc2)c1	inconclusive [inhibitor, partial curve, poor fit]	
CCn1c(=O)c(=O)n(CC)c2cc(N3CCCCC3)c(NC(=O)c3ccc(Cl)cc3)cc21	inconclusive [inhibitor, single point]	
CCN(CC)S(=O)(=O)c1ccc(N/N=C/c2cc(OC)ccc2O)nc1	active: 4.65 µM	
COc1ccc(N(C)S(=O)(=O)c2cccc(C(=O)Nc3ccc4c(c3)OCCO4)c2)cc1	inconclusive [inhibitor, single point]	
CN1CCc2nc(NC(=O)COc3ccc4ccccc4c3)sc2C1	inconclusive [inhibitor, partial curve]	
Cc1cccc(NC(=O)C2CCN(S(=O)(=O)c3c(C)noc3/C=C/c3ccco3)CC2)n1	inconclusive [inhibitor, partial curve]	
O=C(NC1CCCC1)C(c1ccc(F)cc1)N(Cc1ccc(F)cc1)C(=O)CCl (stereo unspecified)		inactive: 0.0167%
COc1cccc(N(C(=O)c2snc(C(N)=O)c2N)C(C(=O)NCC2CCCO2)c2ccc3ncccc3c2)c1 (stereo unspecified)	inconclusive [inhibitor, partial curve, poor fit]	

SMILES	Potency	activity change, negative = inhibition
Cc1ccc(NC(=O)CSc2nnc(-c3cc(C)on3)o2)cc1		inactive: 33.5%
COc1ccccc1-n1c(SC(C)C(=O)NCC2CCCO2)nc2cc(Cl)ccc2c1=O (stereo unspecified)	active: 13.1 µM	
O=C(Nc1nccs1)c1ccc(S(=O)(=O)c2ccccc2)cc1	inconclusive [inhibitor, partial curve, poor fit]	
COc1cc2c3c(c1OC)C1(C=CC(=O)C=C1)CC3N(C(=O)CCC(=O)O)CC2 (stereo unspecified)	active: 2.08 µM	
CN1CCN(c2ccc([N+](=O)[O-])cc2C(=O)N2CCOCC2)CC1		inactive: 5.72%
COc1ccc(CNC(=O)C(c2ccco2)N(C(=O)c2snc(C(N)=O)c2N)c2cccc(OC)c2)cc1 (stereo unspecified)	inconclusive [inhibitor, partial curve]	
Cc1ccc(NC(=S)Nc2cccc3cnccc23)cc1C	inconclusive [inhibitor, single point]	
COCCCNc1nc2cc(OC)c(OC)cc2c2nc(-c3ccccc3)nn12	active: 0.294 µM	
CCc1cccc(NC(=O)C(NC(=O)C2CCCCC2)C(C)C)c1 (stereo unspecified)	inconclusive [inhibitor, partial curve]	
COc1ccc(S(=O)(=O)N2CCN(Cc3cccnc3)CC2)cc1		inactive: -5.35%
COc1ccc(CCNC(=O)C2CCN(S(=O)(=O)c3ccc(NC(C)=O)cc3)CC2)cc1OC	inconclusive [inhibitor, partial curve]	
COc1cc(Cl)c(C)cc1NC(=O)c1ccc2c(SCC(=O)O)c3c(nc2c1)CCCC3	inconclusive [inhibitor, partial curve, poor fit]	
COc1ccc(NS(=O)(=O)c2cc(NC(=O)Cc3c(F)cccc3Cl)ccc2OC)cc1	active: 5.86 µM	
O=C(/C=C/c1ccc(OCCCF)cc1)NCc1ccc(Cl)c(Cl)c1	inconclusive [inhibitor, single point]	
Cc1cc(C)nc(-n2nc(C)cc2NC(=O)c2ccc(F)cc2F)n1	active: 10.4 µM	
Cc1ccc(-c2nc3cccnc3s2)cc1NS(=O)(=O)c1ccc2c(c1)OCCO2	inconclusive [inhibitor, single point]	
O=[N+]([O-])c1ccc(Oc2ccc(S(=O)(=O)N3CCOCC3)cn2)cc1		inactive: 2.59%
CC(=O)N1CCC(CCCC2CCN(C(C)=O)CC2)CC1	inconclusive [inhibitor, single point]	
Cc1cc(N2CCN(C)CC2)nc(-c2ccccc2O)n1	inconclusive [inhibitor, partial curve]	
O=C(Nc1cccnc1)c1ccc(Br)c(S(=O)(=O)N2CCCC2)c1	active: 13.1 µM	
O=CC(Cl)P(=O)(N1CCCCC1)N1CCCCC1 (stereo unspecified)	inconclusive [inhibitor, partial curve, poor fit]	
CCN(CC)S(=O)(=O)c1ccc2c(c1)nc(CCC(=O)Nc1cccc(C(F)(F)F)c1)n2CC	inconclusive [inhibitor, single point]	
COc1cccc(-c2nn(-c3ccc(C)cc3)cc2C(=O)N(C)CC(=O)Nc2cccc(F)c2)c1	active: 5.22 µM	
